Target: T1, Soluble human IL-6 receptor (human, UniProt P08887 20-365)
T1 construct: Interleukin-6 receptor subunit alpha, human, soluble form; also called sIL-6Rα; soluble IL-6Rα; source: bought: Sigma (catalog no. I5771); expressed in Sf21 insect cells
T1 sequence (looked up): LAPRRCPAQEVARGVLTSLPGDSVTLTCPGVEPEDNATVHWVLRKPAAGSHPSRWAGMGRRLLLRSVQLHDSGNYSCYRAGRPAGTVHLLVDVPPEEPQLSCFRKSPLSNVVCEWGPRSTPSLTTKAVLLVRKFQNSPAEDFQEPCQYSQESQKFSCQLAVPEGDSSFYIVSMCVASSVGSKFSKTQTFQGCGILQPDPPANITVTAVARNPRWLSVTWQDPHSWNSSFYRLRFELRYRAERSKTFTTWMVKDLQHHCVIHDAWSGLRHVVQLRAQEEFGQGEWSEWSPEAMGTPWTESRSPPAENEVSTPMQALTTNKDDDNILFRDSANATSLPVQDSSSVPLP
Experiment: ELISA; soluble IL-6Rα coupled to a microtiter plate by passive adsorption; biotinylated IL-6 (50 ng/ml) in PBS with 1% BSA, 0.05% Tween 20, 5 mM MgCl2, 120 min at 25 °C; bound IL-6 detected with streptavidin horseradish peroxidase; with and without SOMAmer or tocilizumab as competitor
Conditions: both partners purified

B1: Recombinant human IL-6, biotinylated (ligand)
chain: not shown
modifications: biotin (NHS-PEO4-biotin) coupled to lysine residues
notes: Interleukin-6, human, […]; recombinant, nonglycosylated; numbers count on: the mature protein; also called interleukin-6; biotinylated IL-6; source: bought: PeproTech (catalog no. 200-06); expressed in Escherichia coli, nonglycosylated; biotinylated with NHS-PEO4-biotin
binding result: binds

— publication PMC3961692, “Chemically Modified DNA Aptamers Bind Interleukin-6 with High Affinity and Inhibit Signaling by Blocking Its Interaction with Interleukin-6 Receptor” (The Journal of Biological Chemistry, 2014)
